Experimental data: the supplement of paper PMC3334620
Whole data set: some 33,000 sequences, median “E-score (-0.5 to 0.5)” near -0.012, cut for the highest 2% near 0.29. The list shows a part of the results.

Molecular target: T1, Ybr033w (UniProt P38073)
T1 sequence: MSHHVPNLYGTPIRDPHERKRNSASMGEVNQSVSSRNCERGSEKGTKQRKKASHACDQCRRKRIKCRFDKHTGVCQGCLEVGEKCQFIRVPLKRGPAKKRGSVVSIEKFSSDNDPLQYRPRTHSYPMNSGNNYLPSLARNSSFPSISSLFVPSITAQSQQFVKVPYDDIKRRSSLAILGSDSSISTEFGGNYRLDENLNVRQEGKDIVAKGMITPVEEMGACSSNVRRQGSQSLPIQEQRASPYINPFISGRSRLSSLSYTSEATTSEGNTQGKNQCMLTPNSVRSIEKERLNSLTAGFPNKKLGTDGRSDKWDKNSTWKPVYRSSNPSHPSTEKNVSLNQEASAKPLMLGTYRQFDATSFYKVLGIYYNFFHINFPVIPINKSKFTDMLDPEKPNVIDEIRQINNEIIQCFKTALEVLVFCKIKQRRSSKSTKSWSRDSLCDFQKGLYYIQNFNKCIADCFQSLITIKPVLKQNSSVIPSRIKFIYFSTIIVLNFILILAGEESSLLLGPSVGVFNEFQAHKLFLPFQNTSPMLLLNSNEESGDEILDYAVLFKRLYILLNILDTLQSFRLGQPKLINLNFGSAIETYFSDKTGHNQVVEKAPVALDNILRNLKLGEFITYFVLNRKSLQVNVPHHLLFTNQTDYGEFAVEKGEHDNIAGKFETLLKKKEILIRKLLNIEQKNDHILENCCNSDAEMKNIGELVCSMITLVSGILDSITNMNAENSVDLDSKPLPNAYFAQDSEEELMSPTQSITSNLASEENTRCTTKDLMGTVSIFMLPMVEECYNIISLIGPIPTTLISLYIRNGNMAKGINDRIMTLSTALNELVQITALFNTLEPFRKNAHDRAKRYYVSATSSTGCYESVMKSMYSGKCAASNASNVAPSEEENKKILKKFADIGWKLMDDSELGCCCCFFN
Assay: PBM E-score (8-mer binding enrichment) (E-score (-0.5 to 0.5)); higher = stronger / more preferred TF binding; most listed sequences are background and not binding sites
Conditions: protein concentration: 200 nM; construct: GST-full length
Procedure, shortened: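 For each ungapped eight-base word taken together with its reverse complement, the Universal PBM Analysis Suite assigned an E-score. Binding data came from GST-tagged yeast transcription factors, applied at about 100-200 nM, on universal all-10-mer Agilent arrays made double-stranded by primer extension. Fluorescent anti-GST marked bound protein, and scans were normalised with masliner.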

Sequence | PBM E-score
ATCTACCA | 0.287
ATGCCTAA | 0.0133
GCGGGAAC | -0.153
CCCACCAC | -0.0659
GATGGTGA | -0.00523
GACTGCGA | -0.13
AACCTCCA | -0.254
AATAAGCA | 0.193
AGGGTCGC | 0.00413
GAACGAGC | -0.2
ACGCCAAG | -0.315
CCGGGCTC | -0.323
AGTCTTGA | 0.0495
ACTGGGGA | -0.232
ATACGCAA | 0.108
AACTGGAC | -0.143
CGATTCAC | -0.00698
AAGAAGCG | -0.145
AATTATCA | 0.324
AGGACACG | -0.223
AAAGAACC | 0.108
AAAGGCCT | -0.287
GCAGCGTA | -0.106
AACTTTCA | 0.0459
GCTCTCCA | -0.268

Sequence | PBM E-score
CTGACCGA | -0.119
CTAGTTCA | 0.169
AGATCGGC | -0.189
AGGGATAG | -0.172
CTTTTTGC | 0.0416
AGATGTAG | 0.0547
TACTGATA | 0.15
AGTCACAC | 0.0366
GCGCGTAA | 0.0616
ATTTAGAC | 0.131
TCATTCGA | 0.168
TAGATAGA | 0.0987
AAACCGGG | -0.042
ATTGCAAC | 0.0245
CCAACGCC | -0.225
CAAGCTGG | -0.248
AGGTGCGA | -0.198
GCTGCTGA | -0.0546
AGAAAGAA | 0.13
CTGGAAGA | 0.189
AACTGCGA | -0.0294
AACCCCAG | -0.151
AACCCCCG | -0.382
ACGACGCC | -0.268
ATGCGAGA | -0.0599

Sequence | PBM E-score
CCGCTGCC | -0.418
CAAATACC | 0.112
CACCGTGG | -0.311
CAGTCCGC | -0.135
GGCTGCGA | -0.136
AGCTAAAG | 0.0298
CATCAAAG | 0.0135
ACTACGTG | -0.197
AAACTATA | 0.17
AAACCTTA | 0.157
CGTAATTA | 0.29
GGAGTCGA | -0.0249
CGTACGAC | -0.204
CAGATCAC | -0.00558
CGATGGAG | -0.134
ACTGGGAT | 0.0931
ACATATAC | 0.112
CGGCAGGC | -0.339
AGGCAAGG | -0.21
ATGGACGG | 0.0966
CGGCGGGC | -0.127
ACGCTGGG | -0.23
GGTAGTTA | 0.0571
GTGATTCA | -0.00395
ATGGTGGC | -0.291

Sequence | PBM E-score
GAGTCATA | 0.037
ATATTTAC | 0.215
AAAAGTGA | 0.199
GGAACGGA | -0.00114
AGTAACAA | 0.17
CGCCTACA | -0.0696
CGCCTAGC | -0.194
GCACGCAA | -0.144
GGAATATA | 0.291
CTACAGAG | -0.014
TATGTAGA | 0.0679
AGATGAGC | -0.0227
CATGCAAG | -0.0221
CCGAGCTA | -0.204
CACGAGGA | -0.137
GAGATCTC | -0.0343
ATCCTGTA | 0.192
AGCAAATG | 0.105
TAGAGACA | -0.043
GGCATTAC | -0.0932
CGCGTCAA | -0.0732
ATCGTGAG | -0.135
AGCCAAAC | 0.154
CGAATCTC | -0.0445
ATACTAAA | 0.284

Sequence | PBM E-score
CAATCGGG | -0.0536
CTGCGTCC | -0.22
GGCTTTAA | 0.0415
ACAGTCCC | -0.12
TAGGGGAA | -0.188
GCATGCAC | -0.144
CCGAATCA | -0.0543
GCCATTAA | 0.137
GACTCCCA | -0.305
GCGTTATA | 0.0389
CATGGGTC | -0.199
AGCTCTAG | -0.157
GAATCAAC | 0.257
GACACGAA | -0.0273
GGGTCGTA | -0.177
CACATCAA | 0.127
TACGTGCA | -0.102
AGAAGGAT | -0.0293
ACCCCATA | -0.149
CCTTGAAG | -0.153
AGTTCACA | 0.0967
AGGTTAGA | -0.0601
TCAATCAA | 0.217
CGTATATC | -0.0176
ACCGCAAC | 0.0881

Sequence | PBM E-score
ATCCCCCC | -0.373
CTCAGGCC | -0.28
CGTGCCTA | -0.107
ACTCCGCT | -0.0751
AGTACTCG | 0.198
CTTTTCCA | -0.0875
CGCCAGGC | -0.239
AAACGGCT | -0.0555
AAGTGAAG | 0.0414
ATGGAGTG | -0.184
ACTATCAT | 0.242
AAAACACC | 0.0357
ACGTAGCG | -0.171
CTTCAGCC | -0.13
ACGACAAA | 0.283
AGCAGGCA | -0.12
TACCACAA | 0.195
TCCTAACA | 0.0774
AGTCGATC | -0.166
AATTGGTA | 0.205
GCTGTCTA | -0.0891
CGATTCAG | 0.0559
CCATTAGC | -0.0535
AAGAGTCT | -0.164
CAAGGTCG | -0.0398

Sequence | PBM E-score
CGGGCCTC | -0.172
CACTGAAG | 0.0968
CGAGTTAA | 0.21
CAACGGAC | -0.123
ATGGGCCC | -0.38
AGGGCGTC | -0.0512
CTTCGTGC | -0.00189
TCCCGACA | -0.0366
GTCCTCTA | -0.103
AAAGAATA | 0.256
AATAAGAA | 0.193
AGACTTCA | -0.0839
ACGCCAGC | -0.189
GGCGACTA | -0.138
CTCAATCC | 0.105
TAGCCTCA | 0.0172
CTCCCCTA | -0.189
ATTTTACA | 0.0461
CGCCGCAG | -0.235
CGCTTGCA | 0.152
AGGCTCGC | -0.232
AACGTAAT | 0.21
